Data on 24 sequences can be found in the supplement of paper PMC10338343.

± gives the standard deviation. The list shows a part of the results, in another mix than the full data.
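Note: 1 nM active piRISC with 0.1 nM target library at 33 °C single turnover.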

For this assay, the system named is MIWI (PIWIL1) piRISC loaded with piRNA #1 (30 nt). The assay can be described thus: pre-steady-state target cleavage rate (min^-1); MIWI and MILI are mouse PIWI proteins and EfPiwi is from a freshwater sponge; tags in brackets are library labels; higher = faster piRNA-guided slicing of the target. Particulars: guide: piRNA #1 5'p-UGAGGUAGUAGGUUGUAUAGUAUCCAGAGG; auxiliary factor: 500 nM mouse GTSF1. An outline of the steps:
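In HEPES–potassium acetate buffer at 33 °C, […] transcribed, DNA-blocked target RNA library was mixed with 1 nM active affinity-purified piRISC carrying one synthetic guide, with or without 500 nM GTSF1 partner protein, for 0–8 or 0–960 min. Uncleaved targets were sequenced and normalised to depth and to weakly complementary targets; three trials were pooled and k3 was capped at 0.0001 min^-1. The pre-steady-state cleavage rate followed from a burst-and-steady-state fit.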
As to CGUCUGGAAACUAUACAACCUACUACCUCA, the “pre-steady-state target cleavage rate” value was 1.72 ± 0.083.

As for GGAGACCUAUGAUAUGUACCUACUUACCUCA, the “pre-steady-state target cleavage rate” value was < 0.0001.

Consider CCUCUGCAUACUAUACAACCUACUUCCUCA, for which the “pre-steady-state target cleavage rate” value worked out at 0.728 ± 0.044.

As for GCUCUGGAUACUAUACAAGCUUCUACCUCA, the “pre-steady-state target cleavage rate” value is 0.218 ± 0.018.

On to GGAGUGGAUACUUUACAACCUUCUACCUCA, for which the “pre-steady-state target cleavage rate” value is 0.469 ± 0.027.

Take GCUCAGGAUACUAUACAACCUACUACGUCA: the “pre-steady-state target cleavage rate” value was found to be 0.866 ± 0.062.

With GGAGACCUAACUAUACAAGCUACUUCCUCA, the “pre-steady-state target cleavage rate” value came to 0.195 ± 0.026.

With GGAGACCUAUCUAUACAAGCUACUACGUCA, the “pre-steady-state target cleavage rate” value came out at 0.264 ± 0.019.

Regarding GCUCUGGAUACUAAACAACCUAGUACCUCA, the “pre-steady-state target cleavage rate” value is 0.375 ± 0.06.

Regarding CCUCUGGAUACAAUACAACCUACUUCCUCA, the “pre-steady-state target cleavage rate” value was determined as 0.567 ± 0.045.

For GGUCUGGAUACUAAUCAACCUACUACCUCA, the “pre-steady-state target cleavage rate” value turned out to be 1.74 ± 0.14.

For GGACUGGUUAGUAUACAACCUACUACCUCA, the “pre-steady-state target cleavage rate” value was 0.904 ± 0.12.

CCUGUGGAUACUUUACAACCUACUACCUCA: the “pre-steady-state target cleavage rate” value amounted to 1.82 ± 0.14.

For CCUCUGGAUACUAUACAACGUAGUACCUCA, the “pre-steady-state target cleavage rate” value was 0.0237 ± 0.0077.

Turning to GGAGUGGAUACUAUACAACCUACUACCUGA, the “pre-steady-state target cleavage rate” value stood at 0.453 ± 0.075.

Consider GGAGACCUAUCUAUACAACCAACUACGUCA, for which the “pre-steady-state target cleavage rate” value amounted to 0.0108 ± 0.0024.

On to CCUCUGGAUACUUUACAACCUACUAGCUCA, for which the “pre-steady-state target cleavage rate” value was found to be 1.04 ± 0.084.

On to GGAGACCAUACUAUACAACCUACAACCUCA, for which the “pre-steady-state target cleavage rate” value was 0.982 ± 0.08.

GGAGAGGAUAGUAUACAACCUACUAGCUCA: the “pre-steady-state target cleavage rate” value was 0.0578 ± 0.013.

For GGAGAGGAUACUAUACAACCUACAACCUGA, the “pre-steady-state target cleavage rate” value amounted to 0.00836 ± 0.0037.

Consider GGAGACCAUACUAUACACCUACUACCUCA, for which the “pre-steady-state target cleavage rate” value was 0.074 ± 0.011.

GGAGAGGAUACUAUACAACCUACGUACCUCA: the “pre-steady-state target cleavage rate” value was 0.372 ± 0.051.

Take GGAGACCUUUGUAUACAACCUACUACCUCA: the “pre-steady-state target cleavage rate” value stood at 0.0731 ± 0.0086.

Consider GGAGACCUUACUAUACAACCUACUAUCCUCA, for which the “pre-steady-state target cleavage rate” value amounted to 1.16 ± 0.077.
